# Publication PMC4336329 (PLoS ONE, 2015)
# In all, about 310,000 compounds went through this assay and about 14,000 (4.5%) showed an effect of 50% or more. Effects have a minus sign here. Some of the results follow.
# Biological target: human ether-à-go-go-related gene (hERG) potassium channel (human, UniProt Q12809)
# Experiment: primary screen, population patch clamp on CHO cells stably expressing hERG
# 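Note: peak tail current of the secondary pulse compared with the same well before compound.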
# Sequence of human ether-à-go-go-related gene (hERG) potassium channel (Q12809 whole entry, looked up): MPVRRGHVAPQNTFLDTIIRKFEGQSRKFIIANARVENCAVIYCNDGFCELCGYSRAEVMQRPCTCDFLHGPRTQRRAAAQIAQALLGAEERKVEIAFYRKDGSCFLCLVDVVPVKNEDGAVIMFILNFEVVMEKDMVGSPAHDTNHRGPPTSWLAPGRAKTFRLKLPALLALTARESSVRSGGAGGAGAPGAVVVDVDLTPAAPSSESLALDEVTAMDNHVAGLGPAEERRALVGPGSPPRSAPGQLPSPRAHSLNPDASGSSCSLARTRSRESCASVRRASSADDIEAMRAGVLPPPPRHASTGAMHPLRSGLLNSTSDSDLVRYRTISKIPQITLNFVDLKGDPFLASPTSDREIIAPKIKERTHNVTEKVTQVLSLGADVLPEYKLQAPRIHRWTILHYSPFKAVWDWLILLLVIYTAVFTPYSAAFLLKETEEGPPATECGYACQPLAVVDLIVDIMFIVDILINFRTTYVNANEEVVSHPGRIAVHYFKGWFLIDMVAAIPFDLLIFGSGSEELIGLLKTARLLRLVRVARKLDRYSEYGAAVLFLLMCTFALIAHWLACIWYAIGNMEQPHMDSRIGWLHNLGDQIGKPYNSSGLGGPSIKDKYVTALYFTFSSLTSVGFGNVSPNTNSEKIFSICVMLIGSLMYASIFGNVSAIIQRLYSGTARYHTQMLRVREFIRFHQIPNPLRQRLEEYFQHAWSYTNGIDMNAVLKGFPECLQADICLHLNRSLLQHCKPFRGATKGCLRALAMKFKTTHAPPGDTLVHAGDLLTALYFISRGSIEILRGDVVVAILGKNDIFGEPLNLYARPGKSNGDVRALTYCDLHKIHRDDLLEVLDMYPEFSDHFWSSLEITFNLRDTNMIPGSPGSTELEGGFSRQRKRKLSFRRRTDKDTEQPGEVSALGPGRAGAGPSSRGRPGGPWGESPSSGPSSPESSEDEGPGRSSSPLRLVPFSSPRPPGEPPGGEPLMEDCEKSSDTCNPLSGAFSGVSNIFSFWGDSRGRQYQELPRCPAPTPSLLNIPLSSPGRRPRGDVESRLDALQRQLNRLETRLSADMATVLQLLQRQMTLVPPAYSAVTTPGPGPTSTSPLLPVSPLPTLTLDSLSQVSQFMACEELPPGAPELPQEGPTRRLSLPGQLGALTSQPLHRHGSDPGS
row,SMILES,"hERG current change (%, negative = inhibition) at 10uM"
1,Cc1cc(C)c2c(CC(=O)Nc3ccc(Cl)cn3)coc2c1,-6.07%
2,CCOC(=O)Nc1ccc2c(c1)Nc1ccccc1S2,1.72%
3,CSc1ccc(/C=C/C(=O)N2CCN(c3ccccn3)CC2)cc1,-23.8%
4,CCOC(=O)c1c(NC(=O)C2CCN(S(=O)(=O)c3ccc(Cl)cc3)CC2)sc2c1CCCC2,1.63%
5,O=C(CCC(=O)Nc1ccc(F)cc1)N/N=C/c1ccc(O)cc1O,3.23%
6,O=C(O)CCCC(=O)N1CCC(C(O)(c2ccccc2)c2ccccc2)CC1,15.5%
7,Cc1cc(C)n(CCC(=O)Nc2cccc(F)c2)n1,5.83%
8,N#Cc1ccc(CSc2nnc(-c3cnccn3)o2)cc1,-20.4%
9,COc1ccc(C2C(C#N)=C(N)Oc3n[nH]c(C)c32)cc1Cn1nnc2ccccc21 (centres unmarked),-8.03%
10,COc1ccc(-c2nc(CN3CCC(C(=O)NC4CC4)CC3)c(C)o2)cc1OC,-12.8%
11,COc1ccc(NC(=S)N/N=C/c2cccn2Cc2ccc(F)cc2Cl)cc1,19.6%
12,CCC1CCCCN1Cc1nc2c(c(=O)n(C)c(=O)n2C)n1CCC(C)C (centres unmarked),-33.4%
13,Cc1ccc(NC(=O)CSc2nc(=O)cc(N)n2CCc2ccccc2)cc1,-36.4%
14,COc1ccc([N+](=O)[O-])cc1NC(=O)CSCc1ccccc1C,-7.85%
15,C=Cn1c(P(=S)(N2CCOCC2)N2CCOCC2)cc2c1CCCC2,-5.05%
16,O=C(Nc1ccc(N2CCN(C(=O)c3cccs3)CC2)cc1)c1cccnc1Cl,-23.3%
17,CC(NC(=O)COc1ccccc1Cl)c1ccccc1 (centres unmarked),7.82%
18,COc1ccc2c(/C=N/Nc3ccc(C(=O)O)cc3)c[nH]c2c1,3.54%
19,COC(=O)CC1C(=O)NCCN1C(=O)c1ccc2oc(C(C)C)nc2c1 (centres unmarked),19.7%

row,SMILES,"hERG current change (%, negative = inhibition) at 10uM"
1,Cc1cccc(NC(=O)c2oc(=O)c3ccccc3c2-c2ccccc2)c1C,-11.4%
2,O=C(CSc1nnc(CNC(=O)c2ccccc2)o1)NCc1ccco1,-0.224%
3,Cc1nc(-c2ccccc2)[nH]c(=O)c1Oc1ccc(Cl)cc1Cl,2.13%
4,Cc1ccc(S(=O)(=O)Nc2ccc(O)c3ncccc23)cc1.Cl,-12.8%
5,S=C(NCCc1ccccc1)NCCN1CCOCC1,5.86%
6,CC(NCCCOc1cccc2ccccc12)c1ccccc1.O=C(O)C(=O)O (centres unmarked),0.734%
7,O=c1/c(=C/c2ccccn2)sc2nc3ccccc3n12,-5.66%
8,Cc1ccc(CCNC(=O)c2ccc3nc4ccccc4c(=O)n3c2)cc1,6.08%
9,COc1ccc(CC(=O)Nc2cccc(-c3nnc(-c4ccc(C)cc4)o3)c2)cc1OC,3.54%
10,COC(CNC(=O)c1ccc2c(c1)ncn2-c1cccc(F)c1)OC,9.13%
11,COc1ccc(-c2cn3c(C)c(C(=O)N4CCN(c5ccccc5F)CC4)sc3n2)cc1,-29.8%
12,COc1ccccc1C(=O)OCC(=O)Nc1ccc(Cl)cn1,10.1%
13,CCN(CC)c1ccc(C(=O)OCC(=O)Nc2ccc3[nH]c(=O)[nH]c3c2)cc1,5.58%
14,Cc1ccc(-c2ocnc2C(=O)N2CCOCC2)cc1,21.4%
15,COc1cccc(OC)c1C(=O)N1CCN(Cc2ccccc2C)CC1,-0.823%
16,COC(C(=O)NCc1ccc(C)cc1)c1ccccc1 (centres unmarked),6.39%
17,Cc1cccc(CCNC(=O)CC2C(=O)NCCN2Cc2ccc(F)c(F)c2)n1 (centres unmarked),22.3%
18,O=C(Cn1cnc2c(cnn2-c2ccccc2)c1=O)NCc1ccccc1,2.06%
19,CCN(CC)C(=O)c1ccc(COc2ccccc2Cl)cc1,-17.2%

row,SMILES,"hERG current change (%, negative = inhibition) at 10uM"
1,Cc1cc(-c2nc3ncccc3o2)ccc1NC(=S)NC(=O)c1ccco1,6.62%
2,CCOCCCNC(=O)C(NC(=O)Cc1c[nH]c2ccccc12)c1ccccc1 (centres unmarked),-2.36%
3,O=C(COc1cccc(-n2cnnn2)c1)Nc1ccccc1,-26.4%
4,O=C(CCn1nc(-c2ccc(Cl)cc2)ccc1=O)N1CCC2(CC1)OCCO2,-39.8%
5,N#Cc1c(SCC(=O)Nc2ccc(Cl)cc2Cl)sc2c(O)cc(=O)[nH]c12,2.27%
6,Cc1cccc(NC(=O)c2cccnc2Oc2ccccc2)c1C(=O)O,24.5%
7,C[C@@H]1O[C@@H](O[C@H]2C[C@@H](O)[C@]3(CO)[C@@H]4C(CC[C@]3(O)C2)[C@@]2(O)CC[C@H](C3COC(=O)C3)[C@@]2(C)C[C@H]4O)[C@H](O)[C@H](O)[C@H]1O (some centres unmarked),14.5%
8,O=S1(=O)Nc2c(ccc3cccnc23)-c2ccccc21,9.9%
9,CCOP(=O)(OCC)C(NC(=O)NC)C(N)=O (centres unmarked),20%
10,Cc1nn(CC(=O)Nc2ccc3nc4n(c(=O)c3c2)CCCC4)c(C)c1[N+](=O)[O-],-6.78%
11,COc1cc(NC(=O)COC(C)=O)cc(OC)c1OC,21.9%
12,CCOc1ccc(CNC(=S)N/N=C/c2ccc(OC)c(OC)c2)cc1,-6.58%
13,Cc1ccc(-c2ccc(=O)n(Cc3cccc(Br)c3)n2)cc1,18.3%
14,C=CCN1C(=O)C(Cc2ccc(F)cc2)S/C1=N/N=C/c1cccs1 (centres unmarked),-9.46%
15,CCOC(=O)c1[nH]cnc1C(=O)Nc1cccc(OC)c1,2.14%
16,Cc1onc(-c2c(F)cccc2Cl)c1C(=O)NCCc1ccncc1,0.179%
17,O=C(NC12CC3CC(CC(C3)C1)C2)c1ccccc1,6.99%
18,CCCN(CCC)Cc1c(C(=O)N/N=C/C(C)=C\c2ccco2)nnn1-c1nonc1N,-11.4%
